# Laboratory results reported in PMC12820563, “FoxP3 forms a head-to-head dimer in vivo and stabilizes its multimerization on adjacent microsatellites”.
# Some of the results follow.
# Target: T1, MBP-FoxP1dN (Mus musculus, UniProt P58462 326-579)
# T1 sequence: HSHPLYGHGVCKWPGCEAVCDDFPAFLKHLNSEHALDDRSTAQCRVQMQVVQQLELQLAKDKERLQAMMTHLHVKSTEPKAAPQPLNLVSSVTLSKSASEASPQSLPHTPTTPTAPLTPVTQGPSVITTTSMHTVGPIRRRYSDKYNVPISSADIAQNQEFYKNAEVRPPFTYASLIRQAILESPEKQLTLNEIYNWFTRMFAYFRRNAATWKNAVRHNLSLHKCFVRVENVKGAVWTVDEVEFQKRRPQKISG
# Assay: PD-seq (MBP pull-down with sequencing); 20 mM Tris-HCl pH 7.5, 100 mM NaCl, 1.5 mM MgCl2, 0.4 uM protein, 0.1 uM dsDNA library, 30 min, room temperature, amylose pull-down; high values mean tight binding
# Settings: protein: recombinant; tags: His6-MBP; chain copies: 2; dsDNA, one strand shown
# Outline: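 E. coli-expressed mouse FoxP3 or FoxP1 fragment, N-terminus removed and tagged with His6-MBP, was used at 0.4 µM against 0.1 µM of a Klenow-filled degenerate double-stranded DNA library. After 30 min at room temperature in Tris pH 7.5 buffer with NaCl and MgCl2, complexes were pulled down on amylose resin and washed three times. Binding is pull-down over input reads-per-million enrichment from pooled replicates of the proteinase K-released, PCR-barcoded, Illumina-sequenced DNA.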
row,Sequence,binding signal
1,GATGATTGTTCTCCCAGCTGATGAATTACTCGGTTCGAGTAAACAAATTTTCCTAATCTTTCTGTTCAAGCGCCATCTAC,0.957 RPM ratio (pull-down/input)
2,GATGATTGTTCTCCCAGCTGATGAATTCATGACATCGAGTAAACAAATTTTCCTAATCTTTCTGTTCAAGCGCCATCTAC,1.08 RPM ratio (pull-down/input)
3,GATGATTGTTCTCCCAGCTGATGAATTCTTTTGTTCGAGTAAACAAATTTTCCTAATCTTTCTGTTCAAGCGCCATCTAC,1.03 RPM ratio (pull-down/input)
4,GATGATTGTTCTCCCAGCTGATGAATTGCACGGATCGAGTAAACAAATTTTCCTAATCTTTCTGTTCAAGCGCCATCTAC,1.03 RPM ratio (pull-down/input)
5,GATGATTGTTCTCCCAGCTGATGAATTATAATGATCGAGTAAACAAATTTTCCTAATCTTTCTGTTCAAGCGCCATCTAC,1.13 RPM ratio (pull-down/input)
6,GATGATTGTTCTCCCAGCTGATGAATTATCTTCTTCGAGTAAACAAATTTTCCTAATCTTTCTGTTCAAGCGCCATCTAC,1 RPM ratio (pull-down/input)
7,GATGATTGTTCTCCCAGCTGATGAATTAAAGCTGTCGAGTAAACAAATTTTCCTAATCTTTCTGTTCAAGCGCCATCTAC,0.981 RPM ratio (pull-down/input)
8,GATGATTGTTCTCCCAGCTGATGAATTCAAAATTTCGAGTAAACAAATTTTCCTAATCTTTCTGTTCAAGCGCCATCTAC,0.937 RPM ratio (pull-down/input)
9,GATGATTGTTCTCCCAGCTGATGAATTCGAGGCGTCGAGTAAACAAATTTTCCTAATCTTTCTGTTCAAGCGCCATCTAC,0.901 RPM ratio (pull-down/input)
10,GATGATTGTTCTCCCAGCTGATGAATTGCCGTCATCGAGTAAACAAATTTTCCTAATCTTTCTGTTCAAGCGCCATCTAC,1.08 RPM ratio (pull-down/input)
11,GATGATTGTTCTCCCAGCTGATGAATTTTAAACCTCGAGTAAACAAATTTTCCTAATCTTTCTGTTCAAGCGCCATCTAC,0.783 RPM ratio (pull-down/input)
12,GATGATTGTTCTCCCAGCTGATGAATTGTGGTCTTCGAGTAAACAAATTTTCCTAATCTTTCTGTTCAAGCGCCATCTAC,1.17 RPM ratio (pull-down/input)
13,GATGATTGTTCTCCCAGCTGATGAATTTTTTTTCTCGAGTAAACAAATTTTCCTAATCTTTCTGTTCAAGCGCCATCTAC,0.756 RPM ratio (pull-down/input)
14,GATGATTGTTCTCCCAGCTGATGAATTGATCTTGTCGAGTAAACAAATTTTCCTAATCTTTCTGTTCAAGCGCCATCTAC,0.926 RPM ratio (pull-down/input)
15,GATGATTGTTCTCCCAGCTGATGAATTATGACGGTCGAGTAAACAAATTTTCCTAATCTTTCTGTTCAAGCGCCATCTAC,0.894 RPM ratio (pull-down/input)
16,GATGATTGTTCTCCCAGCTGATGAATTACGCTCATCGAGTAAACAAATTTTCCTAATCTTTCTGTTCAAGCGCCATCTAC,1.07 RPM ratio (pull-down/input)

row,Sequence,binding signal
1,GATGATTGTTCTCCCAGCTGATGAATTTATGCCTTCGAGTAAACAAATTTTCCTAATCTTTCTGTTCAAGCGCCATCTAC,1.19 RPM ratio (pull-down/input)
2,GATGATTGTTCTCCCAGCTGATGAATTGTGGCGCTCGAGTAAACAAATTTTCCTAATCTTTCTGTTCAAGCGCCATCTAC,1.09 RPM ratio (pull-down/input)
3,GATGATTGTTCTCCCAGCTGATGAATTGCCCCAGTCGAGTAAACAAATTTTCCTAATCTTTCTGTTCAAGCGCCATCTAC,0.909 RPM ratio (pull-down/input)
4,GATGATTGTTCTCCCAGCTGATGAATTATTTCAGTCGAGTAAACAAATTTTCCTAATCTTTCTGTTCAAGCGCCATCTAC,1.04 RPM ratio (pull-down/input)
5,GATGATTGTTCTCCCAGCTGATGAATTTGCATTGTCGAGTAAACAAATTTTCCTAATCTTTCTGTTCAAGCGCCATCTAC,1.44 RPM ratio (pull-down/input)
6,GATGATTGTTCTCCCAGCTGATGAATTCACGAGATCGAGTAAACAAATTTTCCTAATCTTTCTGTTCAAGCGCCATCTAC,0.831 RPM ratio (pull-down/input)
7,GATGATTGTTCTCCCAGCTGATGAATTCCTTTGGTCGAGTAAACAAATTTTCCTAATCTTTCTGTTCAAGCGCCATCTAC,0.887 RPM ratio (pull-down/input)
8,GATGATTGTTCTCCCAGCTGATGAATTTCACTCGTCGAGTAAACAAATTTTCCTAATCTTTCTGTTCAAGCGCCATCTAC,0.833 RPM ratio (pull-down/input)
9,GATGATTGTTCTCCCAGCTGATGAATTGCCTGAATCGAGTAAACAAATTTTCCTAATCTTTCTGTTCAAGCGCCATCTAC,0.981 RPM ratio (pull-down/input)
10,GATGATTGTTCTCCCAGCTGATGAATTTATGAATTCGAGTAAACAAATTTTCCTAATCTTTCTGTTCAAGCGCCATCTAC,1.31 RPM ratio (pull-down/input)
11,GATGATTGTTCTCCCAGCTGATGAATTCATATGATCGAGTAAACAAATTTTCCTAATCTTTCTGTTCAAGCGCCATCTAC,0.969 RPM ratio (pull-down/input)
12,GATGATTGTTCTCCCAGCTGATGAATTCGGCATGTCGAGTAAACAAATTTTCCTAATCTTTCTGTTCAAGCGCCATCTAC,0.904 RPM ratio (pull-down/input)
13,GATGATTGTTCTCCCAGCTGATGAATTTCGGAACTCGAGTAAACAAATTTTCCTAATCTTTCTGTTCAAGCGCCATCTAC,0.799 RPM ratio (pull-down/input)
14,GATGATTGTTCTCCCAGCTGATGAATTTCCCCACTCGAGTAAACAAATTTTCCTAATCTTTCTGTTCAAGCGCCATCTAC,0.835 RPM ratio (pull-down/input)
15,GATGATTGTTCTCCCAGCTGATGAATTTATAACTTCGAGTAAACAAATTTTCCTAATCTTTCTGTTCAAGCGCCATCTAC,1.05 RPM ratio (pull-down/input)
16,GATGATTGTTCTCCCAGCTGATGAATTTGAATCTTCGAGTAAACAAATTTTCCTAATCTTTCTGTTCAAGCGCCATCTAC,0.914 RPM ratio (pull-down/input)
